The source gives no read counts; variants with many changes may rest on few reads.
B1: LINE1-mini (parent)
chain: GGCAGAGCUCAACACAGCGUGGCAAAGUGGCUGUGGCUAGACUGCC

Variants of: B1
Experiment: self-cleavage, relative activity (ratio to wild type); higher = more cleavage; in vitro, sequencing; the parent is a self-cleaving ribozyme

For GGCAGAGCUCAACACAGCGUGGGAAAGUGGCUAAGGCUAGACUCGC [C23G G33A U34A G44C C45G], which self-cleavage is on record?
The self-cleavage was 0.02.

Which self-cleavage does the source give for GGCAGAGCUUGACGUAGCGUGGCAAAGGGGCUGUGGAUAGACUGCC [C10U A11G A14G C15U U28G C37A] here?
Its self-cleavage is 0.01.

For GGCAGAGCUCAACAAAGCGUCCCAAAGUGGCUGUGGCGAGAAUGCC [C15A G21C G22C U38G C42A], which self-cleavage is on record?
The self-cleavage was 0.02.

For GGCACAGCUCAACACAGCGUGGCAAAGUGGCUGUGGACAGAUUGCC [G5C C37A U38C C42U], which self-cleavage is on record?
The self-cleavage was 0.08.

For GGCAGAGCUCAACACAGCGUGGGAAAGUGACUGUGGCUAAACUGCC [C23G G30A G40A], which self-cleavage is on record?
Its self-cleavage is 0.11.

With AGCACAGCUCAACACAGCGUGGCAAAGUGGCUGUGGCUAGACUGAC [G1A G5C C45A] as the variant, how does the self-cleavage read?
Its self-cleavage is 0.12.

Which self-cleavage does the source give for GGCAGAGCUCAACACAGCGUGGCUAUGUGGCUGUGGCUACACUGCU [A24U A26U G40C C46U] here?
The self-cleavage was 0.18.

Which self-cleavage does the source give for AGCAGAGCUCAACACAGGGUGGCAAAGUGGGUGUCGCUAGACUGCC [G1A C18G C31G G35C] here?
Its self-cleavage is 0.02.

For GGCAGAGCUCACCACAGCGUUGCAACGUGGCCGUGGCUAGACUGCA [A12C G21U A26C U32C C46A], which self-cleavage is on record?
The self-cleavage was 0.

With GGCAGAGCUCAACACAUCGUGGCAAAAUGGCUGUGGUUAGACUGCC [G17U G27A C37U] as the variant, how does the self-cleavage read?
The self-cleavage was 0.03.

Which self-cleavage does the source give for GGCAGAGCUCAGCUCAGCGUGGCAAAGUCGCUGUGGCUAGACUGUC [A12G A14U G29C C45U] here?
The self-cleavage was 0.01.

For UGGAGAGCUCAACACAGCGUGGCAUAGUGGCUGUGGAUAGACUGCC [G1U C3G A25U C37A], which self-cleavage is on record?
The self-cleavage was 0.08.

With GGCAGACAUCAACACAGCGUGGCAAAGUGGCUGUGCCUAGACUGCA [G7C C8A G36C C46A] as the variant, how does the self-cleavage read?
The self-cleavage was 0.19.

With GGCAGUGGUCAACACACCGUGGCCAAGUGGCUGUGGCUACACUGCC [A6U C8G G17C A24C G40C] as the variant, how does the self-cleavage read?
The self-cleavage was 0.01.

With GGCAGAGCUCAACACACAGUGGCAAAGUGGCUGUGGCUAGACUCCC [G17C C18A G44C] as the variant, how does the self-cleavage read?
Its self-cleavage is 0.06.

With GGCAGAGCUCAACACAUCGUGGCAAGGUGGCUGUGGUUAGACUGCC [G17U A26G C37U] as the variant, how does the self-cleavage read?
Its self-cleavage is 0.06.

Which self-cleavage does the source give for GGCAGAGCUCAACACCGCGUGGCAAAAUGGCUGUGGCUAGACUGCA [A16C G27A C46A] here?
Its self-cleavage is 0.55.

For GGCAGAGCUCAACACGGCGUAGCAAAGUGGCUGUGGCUAGACAGCC [A16G G21A U43A], which self-cleavage is on record?
Its self-cleavage is 0.09.

With GGCAGAUCUCAACAUAGCGUGGCCAAGUGGCUGUGGCUAGACUACC [G7U C15U A24C G44A] as the variant, how does the self-cleavage read?
The self-cleavage was 0.07.

For GACAGGGCUCAAAACAGCGUGGCAAAGUGGCUGUGGUUAUACUGCC [G2A A6G C13A C37U G40U], which self-cleavage is on record?
Its self-cleavage is 0.02.

With GGCAGAGCUCAACACAGCGUGGCUAAGCGGCUGUGGCUAGCCUGCC [A24U U28C A41C] as the variant, how does the self-cleavage read?
The self-cleavage was 0.03.

With GGCAGAGCUCAACACAGCAUGGCAUAGUGGCUGUUGCUAGACUGCC [G19A A25U G35U] as the variant, how does the self-cleavage read?
Its self-cleavage is 0.06.

Which self-cleavage does the source give for CGCAGAGCUCAACACAGCAUGCCAAAGAGGCUGUGGCUAGACUGCC [G1C G19A G22C U28A] here?
The self-cleavage was 0.03.

For GGCAGAGCUAAACACUGCGUCGCAAAGUGGCUAUGGCUAGACUGAC [C10A A16U G21C G33A C45A], which self-cleavage is on record?
Its self-cleavage is 0.02.

For GGCAGAGAUGAACACAGCGUGGCAAAGAGGCUGUGGCUAGACUGCA [C8A C10G U28A C46A], which self-cleavage is on record?
Its self-cleavage is 0.03.

With GGCGGAGCUCAACACAGCUUGGCAAAGUGGCUGAGGCUAGACUGCC [A4G G19U U34A] as the variant, how does the self-cleavage read?
The self-cleavage was 0.01.

With GGCAGAGCUCAACACAGGGUGGCGAAGUGGCUGUGGCUAGAAUGCC [C18G A24G C42A] as the variant, how does the self-cleavage read?
Its self-cleavage is 0.06.

With GGCAGAGCUCAACACAGCGUGGGAAAGUGGUUGUGGCUAGACUGCG [C23G C31U C46G] as the variant, how does the self-cleavage read?
Its self-cleavage is 0.06.

With GGCAGAGCUCAACACAGCGUGGCACACUGGCUGUGGGUAGACUGCC [A25C G27C C37G] as the variant, how does the self-cleavage read?
The self-cleavage was 0.03.

Which self-cleavage does the source give for GGCGUAGCUCAACACAGCGUGGCAAAGUGGCUGUGGCUAGACUGAC [A4G G5U C45A] here?
The self-cleavage was 0.03.

Which self-cleavage does the source give for GGCAGAGCUUAACACAGCGUGGCAAAGUAGAUGUGGCUAGACUGCC [C10U G29A C31A] here?
The self-cleavage was 0.34.

With GGCAGAGCUCAACACAGCAUGCCAAAUAGGCUGUGGCUAGACUGCC [G19A G22C G27U U28A] as the variant, how does the self-cleavage read?
Its self-cleavage is 0.62.

For GGCAGAGCUCAACACAGCGUGGCAAACUGGCUGUGGCUAGACUUCA [G27C G44U C46A], which self-cleavage is on record?
The self-cleavage was 0.03.

Which self-cleavage does the source give for GGGAGGGCUCAACACAGCGUGGCAACGUGGCUGUGGCUAAAAUGCC [C3G A6G A26C G40A C42A] here?
Its self-cleavage is 0.02.

With UGCAGAGCUAAACACUGCGUGGCAAAGUUGCUGUGGCUAGACUGCC [G1U C10A A16U G29U] as the variant, how does the self-cleavage read?
Its self-cleavage is 0.01.

With GGCAGAGCUCAACCCAGUGUGGCAAAGUGGCUGUUGCUAGACUGCC [A14C C18U G35U] as the variant, how does the self-cleavage read?
Its self-cleavage is 0.03.

Which self-cleavage does the source give for GGCAGAGCUCAAGACAGCGUGGCAACGUUGCUGUGACUAGACUGCC [C13G A26C G29U G36A] here?
The self-cleavage was 0.05.

For GGCAGAGCUCAACGCAGCGUCGCAAAGUGACUGAGGCUAGACUGCC [A14G G21C G30A U34A], which self-cleavage is on record?
The self-cleavage was 0.12.

With GGCACAGCUCAACACAGCGGGGCAAAGUGGCUGUUACUAGACUGCC [G5C U20G G35U G36A] as the variant, how does the self-cleavage read?
Its self-cleavage is 0.17.

Which self-cleavage does the source give for GGCAGAGUUCAACACACCGUGGCAAUGUGGCUGUGGCUAGACUGCC [C8U G17C A26U] here?
Its self-cleavage is 0.01.

With GGCAGAGCUCAGCACAGCGUGGCAAAGUGGCUGUGCCUAGACUGCA [A12G G36C C46A] as the variant, how does the self-cleavage read?
The self-cleavage was 0.01.

For GGCAGAGCUCAACACAGCGUGGCAAAGUGGCUUUGACUAUACUGCC [G33U G36A G40U], which self-cleavage is on record?
The self-cleavage was 0.07.

For GGCAGAGCUCAACAUAGCGUGGCAAAGUGGCUGUGGCUAGACCGGC [C15U U43C C45G], which self-cleavage is on record?
Its self-cleavage is 0.05.

With GGGCGAGCUAAACACAGCGUGGUAAAGUGGCUGUGGCUAGACUGCC [C3G A4C C10A C23U] as the variant, how does the self-cleavage read?
Its self-cleavage is 0.02.

For GGCAGAGCUCAACACAGCGUGGCAAACUUGCUGGGGCUAGACUGCC [G27C G29U U34G], which self-cleavage is on record?
Its self-cleavage is 0.49.

Which self-cleavage does the source give for GGCAGAAAUCAACAGAGCGUGGCAAAGUGGCUGUGGCUAUACUGCC [G7A C8A C15G G40U] here?
Its self-cleavage is 0.13.

For GGCAGAGCUCAACAAAGCAUGGUAAAGUGGCAGUGGCUAGACUGCC [C15A G19A C23U U32A], which self-cleavage is on record?
The self-cleavage was 0.01.

Which self-cleavage does the source give for GGUAGAGCUCAACACAGUGUGGCAAAGUGGCGGUGGCUGGACUCCC [C3U C18U U32G A39G G44C] here?
Its self-cleavage is 0.14.

With GGCAUAGCUCAACACAGCGUUGCAAAGUGGCUGUGGCUAAACUGCC [G5U G21U G40A] as the variant, how does the self-cleavage read?
The self-cleavage was 0.

For GGCAGCGCUCAACACAGCGAGGCAAAGUGGCUGUAGCUAGACUGCC [A6C U20A G35A], which self-cleavage is on record?
Its self-cleavage is 0.15.

For GGCACAGCUCAACAAAGCGUGGCAAACUGGCUGUGGCUGGACUGCC [G5C C15A G27C A39G], which self-cleavage is on record?
The self-cleavage was 0.16.

For GACAGAGCUCAACACAGCAUGGCAAAGUGGCCGUGGCUAGACUGCC [G2A G19A U32C], which self-cleavage is on record?
The self-cleavage was 0.35.

Which self-cleavage does the source give for GGAAGAGCCCAACACAGCGUGGCAAAGGGGCUGUGGCUAAACUGCC [C3A U9C U28G G40A] here?
The self-cleavage was 0.04.

With GGCAGAGCUCAAUACAGCUUGUCAUAGUGGCUGUGGCUAGACUGCC [C13U G19U G22U A25U] as the variant, how does the self-cleavage read?
The self-cleavage was 0.14.

Which self-cleavage does the source give for GGCAGAGCUCGACACAGCGUGGCAAAGUGGCUGUGGCUACACAGCC [A11G G40C U43A] here?
The self-cleavage was 0.

With UGCAGAGCUCAACACAGAGUGGCAAAGUGGCUAUGGCUAGACUGCC [G1U C18A G33A] as the variant, how does the self-cleavage read?
The self-cleavage was 0.02.
